According to ChEMBL document CHEMBL1157539, “Thousands of chemical starting points for antimalarial lead identification” (Nature, 2010):
In all, about 13,000 compounds were measured (“IFI”: median about 4, highest 2% from about 17 on). The list shows a part of the results.

Assay: GSK_TCMDC: Inhibition Frequency Index (IFI). The number of non-kinase HTS assays where a compound showed > 50 % inhibition, expressed as a percentage of the number of such assays in which the compound was tested (-0 is zero)
Assay type: functional
`CCc1cc(CNC2CCN(CCc3c(F)cnc4ccc(OC)nc34)CC2)cc2c1OCCO2` showed an IFI of 6.8%. `Cc1cccc2nc(-c3cccc(-c4cccc(NC(=O)c5cnn6cccnc56)c4)c3)[nH]c12` showed an IFI of 3.88%. `CS(=O)(=O)CCNCc1nc(-c2ccc3ncnc(Nc4ccc(OCc5ccccc5)c(Cl)c4)c3c2)cs1` gave an IFI of 3.68%. With `CCC(C)(CC)C(=O)n1ncc2c3c(N)nc(N)nc3ccc21` the IFI was 5.97%. In the case of `CCCNCc1ccc(-c2ccc(CN(CC3CCCO3)C(=O)COc3ccccc3Cl)cc2)nc1` (stereo unspecified), the IFI is reported as 1.5%. `CN(C)CCOc1ccc(N2CCN(CCCCNC(=O)c3ccc(/C=C/c4cc(Cl)cc(Cl)c4)cc3)CC2)cc1` showed an IFI of 5.36%. With `CCN(CC)CCN(Cc1ccc(-c2ccc(C(F)(F)F)cc2)cc1)C(=O)Cn1c(SCc2ccc(F)cc2)cc(=O)c2ccccc21` the IFI was 7.64%. `CNCc1ccc(CN(C)c2nc(N)c3cc(OC)c(OC)cc3n2)cc1` gave an IFI of -0%. `N=C(N)NN=Cc1ccc2c(ccc3ccccc32)c1` showed an IFI of 3.73%. For `COc1cc2c(cc1S(=O)(=O)c1ccc(NC(=O)c3ccc4ccccc4c3)cc1)CCN(C)CC2`, the IFI was 5.17%. For `CN(C(=O)c1snnc1-c1ccccc1)C1CCN(CCCCCNC(=O)/C=C/c2ccc(Cl)c(Cl)c2)CC1`, the IFI was 9.42%. Work on `CN1CCN(c2ccnc3ccc(NC(=O)Nc4cccc5c(C#N)cccc45)cc23)CC1` yielded an IFI of 0%. For `COc1cc(NC(=O)CCCCCCCCN2CCN(C)CC2)c2ncccc2c1`, the IFI was 1.5%. Compound `CN1c2ccccc2Sc2cc(CNCCSCCNCc3ccc4c(c3)Sc3ccccc3N4C)ccc21` has an IFI of 5.71%. `O=C(Nc1ccc(Cn2ncc(N3CCCNCC3)c(Cl)c2=O)cc1)Nc1ccc(F)cc1[N+](=O)[O-]` gave an IFI of 1.37%. For `N#Cc1c(N)nc(SCC(=O)Nc2cc(C(F)(F)F)ccc2Cl)c(C#N)c1-c1cccs1`, the IFI was 2.67%. With `O=C(/C=C/c1ccc(Cl)c(Cl)c1)NCCCCCN1CCC(NC(=O)Nc2ccc(F)c(F)c2)CC1` the IFI was 6.67%. For `N#Cc1cccc(CN2CCCN(Cc3ccc(C(=O)Nc4ccc(Cl)cc4)cc3)CC2)c1`, the IFI was 7.87%. Compound `COc1ccc(-c2ccc(CNC(=O)c3ccc(C#N)cc3)c(F)c2)cc1CN1CCCN(C)CC1` has an IFI of 5%. With `COc1ccc(NC(=O)Nc2ccc(Nc3nc(C)cc(N(C)C)n3)cc2)cc1` the IFI was 5.88%. With `O=C(Nc1ccccc1)c1ccc(-c2cc3ccncc3cc2OC2CCNCC2)s1` the IFI was 7.89%. In the case of `Cc1cc2[nH]c(-c3ccc(C(=O)NCCCN4CCN(c5cccc(Cl)c5)CC4)cc3)nc2cc1Cl`, the IFI is reported as 0.78%. For `O=C1NC(c2ccc(N3CCCCCC3)cc2)Nc2ccccc21` (stereo unspecified), the IFI was 5.36%. `CO/C(=C\C=C/c1cc2cc(Cl)c(Cl)cc2[nH]1)C(=O)NC1CC(C)(C)N(C)C(C)(C)C1` showed an IFI of 12.9%. For `Nc1nc2c(cnn2CCCCCCCP(=O)(O)O)c(=O)[nH]1`, the IFI was -0%. For `NCc1ccc(CNCc2ccc(-c3ccc(-c4nc5cc(C(F)(F)F)ccc5[nH]4)s3)cc2)cc1`, the IFI was 16.8%. Compound `COC(=O)c1c(C#N)c(OC)cc(O)c1CSC[C@H](Nc1nc(-c2ccc([N+](=O)[O-])cc2)cs1)C(=O)NCCN1CCCCC1` has an IFI of 2.38%. For `Cn1ncc2c3c(CCN4CCC(NCc5cc6c(cn5)OCCO6)CC4)c(Cl)cnc3ccc21`, the IFI was 5.22%. For `COCCCNC(=N)c1ccc(NC(=O)c2ccc(C(=O)Nc3ccc(C(=N)NCCCOC)cc3)cc2)cc1`, the IFI was 2.21%. In the case of `CCCCCCCc1c(C)[nH]c2ccc(F)cc2c1=O`, the IFI is reported as 0.84%. Compound `CO/C(=C\C=C\c1cc2cc(Cl)c(Cl)cc2[nH]1)C(=O)NCCCN1CCN(c2cccc(OC)c2)CC1` has an IFI of 10.6%. For `N=C1NC(c2ccccc2)(c2ccccc2)C(=O)N1C1CCCCC1`, the IFI was 4.85%. `CCCCCCOc1ccc(C(=O)N(Cc2ccccc2)c2c(-c3ccccc3)nc3cc(C)ccn23)cc1` showed an IFI of 4.73%. Work on `O=C(Nc1cccc(CN2CCCN(Cc3ccccc3)CC2)c1)c1ccc(-c2ccccc2)cc1` yielded an IFI of 10.7%. In the case of `O=C(NCCCN1CCC(N2CCCCC2)CC1)C1=Cc2cc(Br)ccc2OC1`, the IFI is reported as 11.4%. With `Cc1cccc2nc(-c3cccc(-c4cccc(NC(=O)C5CC(=O)Nc6ccccc65)c4)c3)[nH]c12` (stereo unspecified) the IFI was 2.61%. For `Cc1cc(CNCC2CCC(CNCCCc3ccccc3)CC2)ccc1O` (stereo unspecified), the IFI was 2.21%. `C=CCOc1ccc(C(=O)Nc2nonc2-c2ccc(OC)c(OC)c2)cc1` gave an IFI of 3.08%. For `Fc1ccc(CN2CCN(c3ncnc4cc(-c5ccccc5)sc34)CC2)cc1`, the IFI was 11.5%. Work on `CO/C(=C\C=C\c1cc2cc(Cl)c(Cl)cc2[nH]1)C(=O)NCCCN1CC(C)N(C)CC1C` (stereo unspecified) yielded an IFI of 11.4%. `Cc1ccc2nc3ccccc3c(NCCN3CCN(C)CC3)c2c1` showed an IFI of 2.96%. `O=C(Nc1ccc(-c2cccc(-c3nc4ccccc4[nH]3)c2)cc1)Nc1ccsc1` showed an IFI of 5.94%. For `CN(C)Cc1ccc(-c2ccc3c(Nc4ccc(Cl)cc4F)ccnc3c2)o1`, the IFI was 8.7%. In the case of `CS(=O)(=O)Cc1ccc(Nc2nccc(-c3c(-c4cccc(NC(=O)C5CCCCC5)c4)nn4ncccc34)n2)cc1`, the IFI is reported as 5.76%. With `Cn1c(=O)n(C)c2cc(CNCCNc3ccnc4cc(Cl)ccc34)ccc21` the IFI was -0%. Work on `CC(=O)c1ccccc1C(=O)N1CCOc2ccc(C(O)C(c3ccccc3)c3ccccc3)cc2C1` (stereo unspecified) yielded an IFI of 0%.
